This passage reports nonsense suppression results from the RNAGym collection of RNA variant scans (doi:10.1101/gad.245936.114).

This sample is rich in variants without activity.

B1: tRNA (parent)
chain: CUCUCGGUAGCCAAGUUGGUUUAAGGCGCAAGACUUUAAUUUAUCACUACGAAAUCUUGAGAUCGGGCGUUCGACUCGCCCCCGGGAGAUUUUUUCCUCGAGCAA

The variants in this data set derive from B1. Briefly: nonsense suppression (GFP-seq) (ratio to wild type); higher = more function; SUP4oc tRNA, yeast GFP reporter sort-seq. The essentials: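 To measure nonsense suppression, tRNA variants from a library carrying ~3% random mutations were integrated into the yeast genome alongside RFP and a GFP ochre reporter under galactose control. Growth took place in raffinose/galactose medium supplemented with 80 mg/L adenine, followed by sorting into GFP/RFP bins and Illumina sequencing of each bin (phred ≥30). For each variant with ≥100 reads and ≥30 cells, the bin median GFP/RFP values were weighted by its estimated cell share per bin and referenced to the unmutated parent tRNA.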
For C3U C12U G18U, the nonsense suppression is at most 0.026. As to A24U G26U C34U, the nonsense suppression was at most 0.026. In the case of G15U G67C C68A, the nonsense suppression was at most 0.026.

For the variant C1A U16A, the nonsense suppression was at most 0.026. For U8C U20C U22A A33C A62C C82G, the nonsense suppression was at most 0.026. For A9C U17A G59U C64A, the nonsense suppression was at most 0.026. Under G10U C64A stands at most 0.026. C5G G18U: the nonsense suppression is at most 0.026. For the variant C12U G84A, the nonsense suppression is at most 0.026.

In the case of C1U G61C, the nonsense suppression is at most 0.026. Consider U22G C64G, for which the nonsense suppression was at most 0.026. Turning to C1G U4A C12U, the nonsense suppression was at most 0.026. For C12G C75A, the nonsense suppression is at most 0.026. In the case of A74G C83G, the nonsense suppression was at most 0.026.

With A14C G25U, the nonsense suppression was at most 0.026. In the case of C3A U4G G15U C80A, the nonsense suppression is at most 0.026.

Consider A14U G66U, for which the nonsense suppression was at most 0.026.

A54C G78A: the nonsense suppression amounted to 0.107. Take G26C C56U U63C: the nonsense suppression is at most 0.026. With C34G C56U G69C, the nonsense suppression was at most 0.026.

Consider C27U U71A, for which the nonsense suppression is at most 0.026.

Regarding C1U U17C C81G G84C, the nonsense suppression was at most 0.026. For the variant G7A U17C C27A A62G U70G, the nonsense suppression was at most 0.026.

Turning to G6U A23U G65A C72U, the nonsense suppression is at most 0.026. Under A14U A31C C56G G88A stands at most 0.026; under U20G G78A C79U, at most 0.026; under C34U U58A, at most 0.026.

As to C12A G69A, the nonsense suppression is at most 0.026. Under C11G U20G C34U U58G C68A stands at most 0.026; under C34G G84C, at most 0.026; under G18C A62C A74C, at most 0.026. Consider A9G C77G, for which the nonsense suppression is at most 0.026. As for C1U C27G G85U G88U, the nonsense suppression was at most 0.026. As for C56U G85U, the nonsense suppression is at most 0.026. As to C12A U21G C75G, the nonsense suppression is at most 0.026. Turning to U2G U16G U22G A23U, the nonsense suppression is at most 0.026. As for U22G C29A C34U, the nonsense suppression was at most 0.026. On to G18A G25U C27U G67C, for which the nonsense suppression is at most 0.026. Consider C77G C80A, for which the nonsense suppression was at most 0.026.

For G6C A14U G61U, the nonsense suppression is at most 0.026. On to A13U A62C C64A, for which the nonsense suppression was at most 0.026.

In the case of C12G U17C A89C, the nonsense suppression was at most 0.026. Next, U70C A87C: at most 0.026. With A62G G67C, the nonsense suppression is at most 0.026. For U58C G61A, the nonsense suppression amounted to 0.0586.

With C11G U57A G78C C81G, the nonsense suppression was at most 0.026.

Turning to C3U C68U, the nonsense suppression came out at 0.201. As for C79G C80G, the nonsense suppression is at most 0.026.

Regarding C3U G19U C68U G84U, the nonsense suppression is at most 0.026. Take G25C C56A: the nonsense suppression was at most 0.026.

In the case of A24C C27U A31C G59U, the nonsense suppression is at most 0.026.

Take A13G G19C A24G: the nonsense suppression is at most 0.026. For U8C C29U U63A, the nonsense suppression is at most 0.026. Turning to G61C G86U, the nonsense suppression is at most 0.026.

With G10C G73C A87G, the nonsense suppression was at most 0.026. As to U2C G7U A62U, the nonsense suppression was at most 0.026. Regarding C3U A33C G59U G61A A74G, the nonsense suppression was at most 0.026. Under U8A C68G stands at most 0.026; under G61C C68U, 0.633; under U2A C34U A87U, at most 0.026. Regarding U20G A30G A54C C77A, the nonsense suppression was at most 0.026. Regarding C27G C29A C56A, the nonsense suppression is at most 0.026. As for U4A U57C A74U G84A, the nonsense suppression is at most 0.026.

Consider C11U G18A C34U, for which the nonsense suppression is at most 0.026.

With A13U A24G A62U G65U, the nonsense suppression is at most 0.026. Next, U8A U21C A31U U55A G67A U70G: at most 0.026; C56G U63G U76G: at most 0.026.

U21A C29A C79U: the nonsense suppression was at most 0.026. With G6C G25A A33U U55G U57C U70A, the nonsense suppression was at most 0.026. For the variant U22C G73A, the nonsense suppression stood at 0.848. Consider A9U G73A G88A, for which the nonsense suppression is at most 0.026.

In the case of G18A G26C U63C G66A U76C, the nonsense suppression was at most 0.026. Under G28U C79G stands at most 0.026. Next, C3G G7A C56G C79G: 0.783; C5G U21G C79U: at most 0.026; C68G G88A: at most 0.026. Turning to U8C U21A G78U, the nonsense suppression is at most 0.026. On to A13C G19C, for which the nonsense suppression was at most 0.026. For the variant A60C G88A, the nonsense suppression was at most 0.026.

As for C1U A30C G65A C80G, the nonsense suppression was at most 0.026. Turning to C3U A30U G69C, the nonsense suppression was at most 0.026. Regarding C5U C12G, the nonsense suppression is at most 0.026. On to A33U U63G C79U, for which the nonsense suppression is at most 0.026.

Take G66A G84A: the nonsense suppression was at most 0.026. For G15U G66C, the nonsense suppression was at most 0.026. Turning to G10C G67U G84U, the nonsense suppression is at most 0.026.

A31U C56U C83G: the nonsense suppression is at most 0.026. G15C A30U U63A: the nonsense suppression is at most 0.026. As for A9U G88U, the nonsense suppression was at most 0.026. Next, U2G A30U A60C: at most 0.026; U17G G61U: 0.832. Turning to U4C G10C A13U A31U, the nonsense suppression is at most 0.026. Consider A9G C12A U22G G86A, for which the nonsense suppression is at most 0.026. C34G C79A: the nonsense suppression is at most 0.026. On to C56A A62G, for which the nonsense suppression is at most 0.026. Regarding U22A A23U A24G A62C, the nonsense suppression is at most 0.026. Next, U16C U57G A74C C79G: at most 0.026.

As to G19U G28U U35G G88U, the nonsense suppression is at most 0.026. U58A G61C: the nonsense suppression is at most 0.026.

Consider G6U C12A, for which the nonsense suppression was at most 0.026. Take G65C G67A G69A: the nonsense suppression was at most 0.026. On to U2A U16C, for which the nonsense suppression is at most 0.026. In the case of U21C C80A, the nonsense suppression is at most 0.026. As for C64A G78U, the nonsense suppression is at most 0.026. For G32C C72U, the nonsense suppression is at most 0.026. Consider G65C C79G C83U G88A, for which the nonsense suppression was at most 0.026.

Turning to A31G C34U, the nonsense suppression is at most 0.026.

In the case of G6C A14U G28U, the nonsense suppression is at most 0.026. Regarding G6U A14U, the nonsense suppression is at most 0.026. For U4A G7U U76A, the nonsense suppression is at most 0.026. Turning to U4C G7C A13G U76C, the nonsense suppression was at most 0.026.

Take G18A G19C G88C: the nonsense suppression is at most 0.026.

In the case of A14U G18A A24G U71C, the nonsense suppression is at most 0.026. As for A60G G67C C77G C82G G84A, the nonsense suppression is at most 0.026. As to C11G A13G A24U C34G, the nonsense suppression is at most 0.026. U20C A23G C29U A54U: the nonsense suppression was at most 0.026. Turning to A9U G85C, the nonsense suppression turned out to be 0.0283.

In the case of G65C G66C U76C, the nonsense suppression was 0.793.

Consider C75A C80G, for which the nonsense suppression was at most 0.026. With U71A G86U, the nonsense suppression was at most 0.026. In the case of A9U G28U, the nonsense suppression was at most 0.026. For C5G G66A G69A, the nonsense suppression is at most 0.026. Next, G18A U22A G59A: at most 0.026.

With U21G G28A, the nonsense suppression is 1.14.

Turning to A30U A54C, the nonsense suppression turned out to be 0.0467. In the case of A14U U16C U58A G61U C72U, the nonsense suppression is at most 0.026. Under U22G A60C stands 0.175. Consider C3A U58G C64U G67A C79U, for which the nonsense suppression is at most 0.026. As for A14U C75G, the nonsense suppression was at most 0.026. On to A30G G69A A89U, for which the nonsense suppression is at most 0.026. In the case of G7C A89U, the nonsense suppression is at most 0.026. Next, C1G A13G G61C U76C: at most 0.026. Next, G7C A33U G73A: at most 0.026; C34A G65C: at most 0.026; C34U U57A G73A: at most 0.026. Next, C11U U16A A62G: at most 0.026; U2G U70C: at most 0.026; U16G G85U: 1.06. C56G G67U U70A: the nonsense suppression is at most 0.026. Next, A24U C80A G84C: at most 0.026. As to U22C A31G A74C, the nonsense suppression was at most 0.026. On to C34A U57A, for which the nonsense suppression was at most 0.026. As for U20A G84U A89U, the nonsense suppression is at most 0.026. On to U21G C29U C56G, for which the nonsense suppression was at most 0.026. Under U17G C79U stands 0.764; under A14C A33U A74U, at most 0.026. Next, C12U G19U: at most 0.026. Under G19U G78C stands at most 0.026; under G25C C75A, 0.826.

Turning to G7A C81G G85A, the nonsense suppression is at most 0.026.

As to G15U A23U U57G G69U C82U, the nonsense suppression was at most 0.026. Consider C12A A23G G25C, for which the nonsense suppression was at most 0.026. Under A31C G78A stands at most 0.026; under U16G U20C C68A A87G, at most 0.026; under C3U U35A C64A G78C, at most 0.026. For the variant G7C G86U, the nonsense suppression was at most 0.026. For the variant A14U U55A G67A, the nonsense suppression is at most 0.026. For C5U U57A U63A, the nonsense suppression was at most 0.026. For C3A G6U, the nonsense suppression is at most 0.026. With C1U G26U C34G, the nonsense suppression is at most 0.026. For the variant C5U G28U G78U A89G, the nonsense suppression was at most 0.026. With G6A G15U C29G, the nonsense suppression is at most 0.026. U8A A9U: the nonsense suppression is at most 0.026.

Regarding G6U U17G C83A, the nonsense suppression worked out at 1.15. Turning to G26C G61C U76A, the nonsense suppression is at most 0.026. With G18U A62C, the nonsense suppression is at most 0.026. Consider C5G G7U, for which the nonsense suppression is at most 0.026.
